Reference: PubChem BioAssay (NCATS)
Where “and” joins values, the source holds several entries; their conditions need not be identical. Identical values can stand only once. The list shows a part of the results. Further columns of the screen follow, without active or inactive calls. Most of these compounds were active or inconclusive in the main read-out, so they are no random draw. For some of these results: Potencies come from curve fits of mixed quality, noted in brackets.

Assays:
[1] = qHTS Assay for Lipid Storage Modulators (AID 1519); details: Drosophila S3 cells, BODIPY lipid droplet/cell ratio, laser cytometry, cells loaded with oleic acid
Procedure, shortened: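 Cells seeded at 5,000 per well were treated with compounds over a concentration series and loaded with oleic acid (400 uM, as added). Lipid droplet fluorescence (488 nm excitation, 500-530 nm channel) was read by laser-scanning cytometry and normalized to 20 uM Triacsin C.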

[2] = qHTS assay for small molecule antagonists of peroxisome proliferator-activated receptor delta signaling (AID 588535); details: HEK293T PPARd-UAS-bla, beta-lactamase FRET ratio, 18 h; 460 nm channel;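 note: cells co-treated with a PPAR-delta agonist as stimulator during compound exposure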
Procedure, shortened: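 Compounds tested in titration on PPAR-delta-UAS-bla HEK293T cells grown in charcoal/dextran-stripped serum (2%); beta-lactamase activity read via CCF4 emission at 460 and 530 nm.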

[3] = qHTS assay for small molecule agonists of retinoid X receptor alpha signaling (AID 588544); details: HEK293T RXRa-UAS-bla, beta-lactamase reporter, 18 h; 530 nm emission
[4] = qHTS Assay for Modulators of Human Peripheral Myelin Protein 22 (PMP22) Expression/Activity (AID 1967); details: Cell-based PMP22 reporter, dual-color luciferase ratio
Procedure, shortened: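 Engineered MSC80 cells, Pmp22-promoter green and EF-alpha red luciferase reporters; 24h compound treatment at 37 °C. Concentration-response fits on green, red and ratio signals, each overlap-corrected, with %Activity normalized to untreated wells.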

[5] = qHTS Validation Assay to Find Inhibitors of Chronic Active B-Cell Receptor Signaling (AID 485345); details: ABC-DLBCL cells, chronic BCR signaling reporter
Procedure, shortened: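 TMD8 ABC-DLBCL cells with dox-inducible green luciferase–IκBα fusion and red native luciferase; compounds 46 uM–3 nM, 4 h at 37C with doxycycline in 0.5% FBS IMDM. Green/red ratio normalized to basal and 10 uM MG-132.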

[6] = qHTS assay for small molecule antagonists of peroxisome proliferator-activated receptor gamma signaling (AID 588537); details: HEK293 PPARg-UAS-bla, beta-lactamase ratio, antagonist mode; measured here: W460 blue channel
Procedure, shortened: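 HEK293 cells, PPAR-gamma-UAS-bla, 3000/well. Pre-incubation 6-6.5 h, 37 C. Compound titration with rosiglitazone 50 nM final, 16 h. CCF4 dye, 2 h RT, dual-emission fluorescence.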

[7] = S16 Schwann cell PMP22 intronic element beta-lactamase assay (AID 624044); details: S16 rat Schwann cells, PMP22 element beta-lactamase FRET, 24 h; measured here: 460 nm blue channel; note: nearly all actives have a fitted effect of over 15% in size
Procedure, shortened: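 Beta-lactamase reporter under a PMP22 intronic regulatory element in stable S16 rat Schwann cells; 24 h compound exposure. 460 nm blue signal normalized between DMSO (0%) and potassium clavulanate, with 535 nm FRET tracking viability; curves classed by r2 and response.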

[8] = qHTS assay for small molecule antagonists of retinoid X receptor alpha signaling (AID 588546); details: HEK293T RXRa-UAS-bla, beta-lactamase ratio, antagonist mode; measured here: W530 green channel, cytotoxicity proxy;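 note: cells stimulated with 9-cis-retinoic acid as agonist; % is set by controls: 0 for no effect and ±100 for the full control effect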
Procedure, shortened: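 Beta-lactamase reporter inhibition, read as CCF4 fluorescence ratio (ex 405, em 460/530 nm) after 2 h at RT. HEK293T UAS-bla cells, 2500/well, were stimulated with 9-cis-RA at 500 or 100 nM final alongside test compound for 18 h at 37 C.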

[9] = Nrf2 qHTS screen for inhibitors: Validation (AID 493153); details: A549 ARE-Fluc reporter, 18-24 h; AC50: CellTiter-Fluor fluorescence read, measured here: cytotoxicity CellTiter-Fluor AC50; viability change: measured here: cytotoxicity max response
Procedure, shortened: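 Concentration-response test in A549 ARE_Fluc reporter cells (5% FBS OPTI-MEM), compound exposure 18-24 h at 37°C, 5% CO2. Cell viability measured first by CellTiter-Fluor fluorescence; ARE-driven luciferase luminescence then measured as Nrf2 activity.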

[10] = measured here: cell count channel max response
[11] = measured here: cell number channel AC50
[12] = measured here: lipid (BODIPY) channel AC50
[13] = measured here: lipid channel max response
[14] = measured here: green reporter channel AC50, mouse Pmp22 promoter in mouse Schwann cells
[15] = measured here: red reporter channel AC50, EF-alpha promoter control reporter in MSC80 mouse Schwann cells
[16] = measured here: CBR control luciferase (viability counter)
[17] = measured here: CBG/CBR ratio read-out
Tags give direction and shape of the fitted curve.

In the case of `CC/C=C\C/C=C\C/C=C\CCCCCCCC(=O)O`, the max response [1, 10] is reported as 32.6%, the AC50 [1, 11] is reported as 14.1 µM [rising, partial curve, poor fit] and the AC50 [1, 12] is reported as 14.1 µM [rising, partial curve, poor fit]. For the same compound, the max response [1, 13] was 38.8%, the max response [2] was 76.4% and the max response [3] was 37.7%.

In the case of `O=C(Nc1ccccc1)c1cc([N+](=O)[O-])ccc1Cl`, the max response [1, 10] is reported as 90.7% and -73.3%, the AC50 [1, 11] is reported as 15.8 µM [rising, partial curve, poor fit] and 31.6 µM [falling, partial curve, poor fit] and the AC50 [1, 12] is reported as 35.5 µM [falling, partial curve, poor fit]. For the same compound, the max response [1, 13] was 117% and -76.8%, the AC50 [4, 14] was 75.7 µM [falling, partial curve] and the AC50 [4, 15] was 19 µM [falling, full curve]. The AC50 [5, 16] was 3.26 µM [rising, full curve, poor fit], the AC50 [6] was 28.2 µM [falling, partial curve, poor fit] and the max response [3] was 19%.

With `O=c1onc2cnc3ccccc3n12` the max response [1, 10] was 87.2%, the AC50 [1, 11] was 14.1 µM [rising, partial curve] and the AC50 [1, 12] was 3.98 µM [rising, partial curve]. For the same compound, the max response [1, 13] was 82.4%, the AC50 [5, 17] was 23.1 µM [falling, single point] and the AC50 [5, 16] was 16.4 µM [falling, single point].

For `CC1=C(/C=C/C(C)=C/C=C/C(C)=C/C(=O)O)C(C)(C)CCC1`, the max response [1, 10] was 22.2% and 33%, the AC50 [1, 11] was 17.8 µM [rising, full curve, poor fit] and the AC50 [1, 12] was 35.5 µM [rising, single point] and 15.8 µM [rising, full curve, poor fit]. For the same compound, the max response [1, 13] was 40.1% and 41.2%, the AC50 [4, 14] was 9.53 µM [falling, partial curve, poor fit] and the AC50 [5, 17] was 2.31 µM [falling, full curve]. For the same compound, the AC50 [5, 16] was 1.84 µM [falling, full curve] and the AC50 [7] was 0.178 µM [falling, full curve, poor fit].

For `CCCCC1C(=O)N(c2ccccc2)N(c2ccccc2)C1=O`, the max response [1, 10] was 36.9% and 51.5%, the AC50 [1, 11] was 31.6 µM [rising, single point] and the AC50 [1, 12] was 31.6 µM [rising, single point]. For the same compound, the max response [1, 13] was 53.1% and 55.1% and the AC50 [6] was 70.8 µM [rising, single point].

For `CCOc1ccc2c(c1)C(C)=CC(C)(C)N2`, the max response [1, 10] was 34.6%, the AC50 [1, 11] was 14.1 µM [rising, partial curve, poor fit] and the AC50 [1, 12] was 15.8 µM [rising, partial curve]. The max response [1, 13] was 44.6%, the max response [2] was 262% and 314% and the AC50 [6] was 44.7 µM [rising, partial curve]. The max response [3] was 110% and 43.5% and the max response [8] was 122% and 47.6%.

With `C[C@@H](NC(=O)/C(C#N)=C/c1ccc(O)c(O)c1)c1ccccc1` the max response [1, 10] was 34.7% and -41.4%, the AC50 [1, 11] was 14.1 µM [rising, partial curve, poor fit] and 5.01 nM [falling, full curve, poor fit] and the AC50 [1, 12] was 0.00501 µM [falling, full curve, poor fit]. For the same compound, the max response [1, 13] was -6.42% and -51.5%, the AC50 [4, 15] was 30.1 µM [falling, full curve] and the AC50 [5, 17] was 14.6 µM [falling, partial curve]. The AC50 [9] was 13 µM [falling, partial curve, poor fit] and the viability change [9] was -24.7%.

In the case of `Cc1c(C(=O)O)c(O)cc2c1C(=O)c1c(O)c([C@H]3O[C@H](CO)[C@@H](O)[C@H](O)[C@H]3O)c(O)c(O)c1C2=O`, the max response [1, 10] is reported as 28.9%, the AC50 [1, 11] is reported as 10 µM [rising, full curve, poor fit] and the AC50 [1, 12] is reported as 12.6 µM [rising, partial curve, poor fit]. The max response [1, 13] was 12% and the AC50 [6] was 70.8 µM [rising, single point].

For `CC1=NN(c2ccccc2)C(=O)C1`, the max response [1, 10] was 73.9%, the AC50 [1, 11] was 28.2 µM [rising, partial curve] and the AC50 [1, 12] was 31.6 µM [rising, partial curve, poor fit]. The max response [1, 13] was 95.1%, the max response [2] was 46.7% and the AC50 [6] was 5.01 µM [falling, full curve, poor fit]. The max response [3] was 31.5% and 0.553% and the max response [8] was -0.337%.

With `N[C@@H](Cc1c[nH]c2ccc(O)cc12)C(=O)O` the max response [1, 10] was 29.4%, the AC50 [1, 11] was 17.8 µM [falling, partial curve, poor fit] and the AC50 [1, 12] was 11.2 µM [falling, partial curve, poor fit]. For the same compound, the max response [1, 13] was 31.3%, the AC50 [4, 15] was 84.9 µM [falling, single point] and the AC50 [5, 16] was 32.6 µM [rising, single point].

With `CN(C)CCCc1cc(C(=O)Nc2ccc(-c3ccncc3)cc2)ccc1O` the max response [1, 10] was 71.1%, the AC50 [1, 11] was 1.12 µM [rising, full curve, poor fit] and the AC50 [1, 12] was 14.1 µM [rising, partial curve, poor fit]. The max response [1, 13] was 98.1%, the AC50 [5, 17] was 16.4 µM [falling, partial curve] and the AC50 [5, 16] was 10.3 µM [falling, partial curve]. It also gave a viability change [9] of -1.86%.
